Source: the supplement of paper PMC4604168 (melanoma cell lines)
This is one part of the list. Most values come without repeats; read them as rough.

How the values were obtained:
Assay in all cases: cell count relative to DMSO control; melanoma cells; higher = more viable cells
Conditions in all cases: library dose: low library concentration; 72 h
[1] = system: MZ2-MEL
[2] = system: MeWo
[3] = system: RPMI7951
[4] = system: RVH-421
[5] = system: SkMel28
[6] = system: SkMel2
[7] = system: SkMel30
[8] = system: SkMel5
[9] = system: UACC257
[10] = system: UACC62
[11] = system: WM115
[12] = system: WM1716
[13] = system: WM1745
[14] = system: WM3526
[15] = system: WM3619
[16] = system: WM451Lu
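Also: cell number obtained by counting DAPI-stained nuclei in high-throughput microscope images with image analysis software, screen run in 1,536-well plates.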

SMILES | cell count [1] [%] | cell count [2] [%] | cell count [3] [%] | cell count [4] [%] | cell count [5] [%] | cell count [6] [%] | cell count [7] [%] | cell count [8] [%] | cell count [9] [%] | cell count [10] [%] | cell count [11] [%] | cell count [12] [%] | cell count [13] [%] | cell count [14] [%] | cell count [15] [%] | cell count [16] [%]
Nc1ccn([C@@H]2O[C@H](CO)[C@@H](O)C2(F)F)c(=O)n1 [gemcitabine] + NCC(=O)Nc1ccc(-n2nc(C(F)(F)F)cc2-c2ccc3c(ccc4ccccc43)c2)cc1 [OSU03012] (first compound 0.0004 µM, partner dose 1 µM) | 85.8 | 55.2 | 91 | 73.3 | 84.7 | 78.7 | 57.3 | 101 | 96.3 | 91.9 | 90.2 | 96.3 | 68 | 63.6 | 74 | 69.6
Nc1ccn([C@@H]2O[C@H](CO)[C@@H](O)C2(F)F)c(=O)n1 [gemcitabine] + c1cc(-c2cnn3cc(-c4ccc(OCCN5CCCCC5)cc4)cnc23)ccn1 [Dorsomorphin] (first compound 0.0004 µM, partner dose 0.4 µM) | 92.4 | 98.3 | 97.7 | 152 | 97.7 | 121 | 119 | 88.6 | 80.4 | 108 | 94.1 | 86.7 | 69.9 | 100 | 69.1 | 105
CC(=O)O[C@@]12CO[C@@H]1C[C@H](O)[C@@]1(C)C(=O)[C@H](O)C3=C(C)[C@@H](OC(=O)[C@H](O)[C@@H](NC(=O)OC(C)(C)C)c4ccccc4)C[C@@](O)([C@@H](OC(=O)c4ccccc4)[C@H]21)C3(C)C [Docetaxel] + CCN(CC)CCCCNc1ncc2cc(-c3cc(OC)cc(OC)c3)c(NC(=O)NC(C)(C)C)nc2n1 [PD173074] (first compound 0.0001 µM, partner dose 0.1 µM) | 48.9 | 49.3 | 39.8 | 57.8 | 48.2 | 40.3 | 44.3 | 77.6 | 58.3 | 50 | 66.7 | 44.4 | 52.8 | 45 | 79.5 | 58.2
Nc1nc(F)nc2c1ncn2[C@@H]1O[C@H](CO)[C@@H](O)[C@@H]1O [fludarabine] + CCN(CC)CCCCNc1ncc2cc(-c3cc(OC)cc(OC)c3)c(NC(=O)NC(C)(C)C)nc2n1 [PD173074] (first compound 0.2 µM, partner dose 0.1 µM) | 98.4 | 24.5 | 101 | 103 | 83.2 | 3.76 | 19.7 | 55.2 | 107 | 76.5 | 85.8 | 102 | 106 | 29.5 | 80.6 | 40.2
CC(=O)O[C@@]12CO[C@@H]1C[C@H](O)[C@@]1(C)C(=O)[C@H](O)C3=C(C)[C@@H](OC(=O)[C@H](O)[C@@H](NC(=O)OC(C)(C)C)c4ccccc4)C[C@@](O)([C@@H](OC(=O)c4ccccc4)[C@H]21)C3(C)C [Docetaxel] + COc1ccc(-c2ccc3c(N4CCOCC4)nc(N4C[C@@H](C)O[C@@H](C)C4)nc3n2)cc1CO [KU0063794] (first compound 0.0001 µM, partner dose 0.02 µM) | 49 | 46.9 | 41.2 | 77.5 | 44.8 | 44.3 | 29 | 68 | 41.6 | 40.1 | 59.1 | 38.9 | 47.5 | 37.9 | 68.9 | 45.5
CC(=O)O[C@@]12CO[C@@H]1C[C@H](O)[C@@]1(C)C(=O)[C@H](O)C3=C(C)[C@@H](OC(=O)[C@H](O)[C@@H](NC(=O)OC(C)(C)C)c4ccccc4)C[C@@](O)([C@@H](OC(=O)c4ccccc4)[C@H]21)C3(C)C [Docetaxel] + C[C@@H]1CCN(C(=O)CC#N)C[C@@H]1N(C)c1ncnc2[nH]ccc12 [CP690550] (first compound 0.0001 µM, partner dose 1 µM) | 46.5 | 40.7 | 39.4 | 54.2 | 27.1 | 40.8 | 27.5 | 70 | 34.9 | 44.4 | 71.5 | 25.8 | 50.1 | 35.9 | 68.2 | 49.3
Nc1ncn([C@H]2C[C@H](O)[C@@H](CO)O2)c(=O)n1 [decitabine] + C=CCn1c(=O)c2cnc(Nc3ccc(N4CCN(C)CC4)cc3)nc2n1-c1cccc(C(C)(C)O)n1 [MK1775] (first compound 0.1 µM, partner dose 0.02 µM) | 81.3 | 91 | 89.7 | 94.1 | 79 | 98.2 | 100 | 88.4 | 82.4 | 65.2 | 70.3 | 64 | 91.4 | 124 | 76.4 | 76.7
Nc1ncn([C@H]2C[C@H](O)[C@@H](CO)O2)c(=O)n1 [decitabine] + CC(C)CCN1c2nc(Nc3cc(F)c(O)c(F)c3)ncc2N(C)C(=O)C1C [BID1870] (first compound 0.1 µM, partner dose 0.2 µM) | 101 | 104 | 88.5 | 76.3 | 65.9 | 106 | 101 | 107 | 117 | 72.1 | 88.5 | 58.1 | 106 | 93.3 | 61.3 | 107
Nc1nc(F)nc2c1ncn2[C@@H]1O[C@H](CO)[C@@H](O)[C@@H]1O [fludarabine] + Cc1ccc(NC(=O)c2cccc(N(C)C)c2)cc1NC(=O)c1ccc(O)cc1 [ZM336372] (first compound 0.2 µM, partner dose 2 µM) | 82.5 | 29.3 | 75.8 | 94.8 | 78.9 | 6.34 | 10.5 | 59.3 | 87.7 | 119 | 92.6 | 114 | 99 | 27.8 | 104 | 43.2
Nc1nc(F)nc2c1ncn2[C@@H]1O[C@H](CO)[C@@H](O)[C@@H]1O [fludarabine] + COc1cc(N2CCC(N3CCN(C)CC3)CC2)ccc1Nc1ncc(Cl)c(Nc2ccccc2S(=O)(=O)C(C)C)n1 [NVP-TAE684] (first compound 0.2 µM, partner dose 0.08 µM) | 106 | 28.6 | 89.1 | 119 | 71.7 | 6.22 | 16.9 | 48.2 | 60.6 | 87.8 | 96.3 | 95.6 | 88.9 | 22.3 | 85.8 | 54.1
CC(=O)O[C@@]12CO[C@@H]1C[C@H](O)[C@@]1(C)C(=O)[C@H](O)C3=C(C)[C@@H](OC(=O)[C@H](O)[C@@H](NC(=O)OC(C)(C)C)c4ccccc4)C[C@@](O)([C@@H](OC(=O)c4ccccc4)[C@H]21)C3(C)C [Docetaxel] + O=c1cc(-c2cccc3c2Sc2ccccc2S3)oc(N2CCOCC2)c1 [KU55933] (first compound 0.0001 µM, partner dose 1 µM) | 46.9 | 48.6 | 37.8 | 45.6 | 43.1 | 44.5 | 31 | 85.7 | 41.3 | 34.7 | 60.1 | 36.2 | 52.6 | 33.7 | 60.6 | 56.3
CC(=O)O[C@@]12CO[C@@H]1C[C@H](O)[C@@]1(C)C(=O)[C@H](O)C3=C(C)[C@@H](OC(=O)[C@H](O)[C@@H](NC(=O)OC(C)(C)C)c4ccccc4)C[C@@](O)([C@@H](OC(=O)c4ccccc4)[C@H]21)C3(C)C [Docetaxel] + O=S(=O)(c1ccccc1)N(CC(F)(F)F)c1ccc(C(O)(C(F)(F)F)C(F)(F)F)cc1 [T0901317] (first compound 0.0001 µM, partner dose 1.4 µM) | 48.3 | 35.3 | 48.7 | 79.9 | 44.5 | 40.2 | 37 | 73.5 | 37.2 | 38.2 | 58.8 | 34.2 | 46.9 | 32.3 | 67.3 | 53
CC(=O)O[C@@]12CO[C@@H]1C[C@H](O)[C@@]1(C)C(=O)[C@H](O)C3=C(C)[C@@H](OC(=O)[C@H](O)[C@@H](NC(=O)OC(C)(C)C)c4ccccc4)C[C@@](O)([C@@H](OC(=O)c4ccccc4)[C@H]21)C3(C)C [Docetaxel] + Oc1cc(-c2nc(-c3ccccc3)[nH]c2-c2ccncc2)ccc1Cl [L779450] (first compound 0.0001 µM, partner dose 0.2 µM) | 39 | 46.3 | 45.4 | 67.1 | 50.4 | 42 | 28.1 | 78.5 | 49.2 | 37 | 52.3 | 29 | 41 | 36.1 | 65.4 | 48.9
CC(=O)c1c(C)c2cnc(Nc3ccc(N4CCNCC4)cn3)nc2n(C2CCCC2)c1=O [palbociclib] + CCc1ccc(CCOc2ccc(CC3SC(=O)NC3=O)cc2)nc1 [pioglitazone] (first compound 0.04 µM, partner dose 2 µM) | 92.1 | 82.8 | 79.4 | 91.6 | 67.4 | 81 | 69.6 | 71 | 77.5 | 80.3 | 69.9 | 54.7 | 82.7 | 68.3 | 79.5 | 70.4
Nc1ncn([C@H]2C[C@H](O)[C@@H](CO)O2)c(=O)n1 [decitabine] + CCN(CC)CCCCNc1ncc2cc(-c3cc(OC)cc(OC)c3)c(NC(=O)NC(C)(C)C)nc2n1 [PD173074] (first compound 0.1 µM, partner dose 0.1 µM) | 91 | 97.5 | 70 | 73.6 | 83.5 | 120 | 91.5 | 94.9 | 103 | 78.9 | 79.7 | 71 | 103 | 100 | 104 | 93.3
Nc1ncn([C@H]2C[C@H](O)[C@@H](CO)O2)c(=O)n1 [decitabine] + Cc1cc(N2CCOCC2)cc2[nH]c(-c3c(NC[C@@H](O)c4cccc(Cl)c4)cc[nH]c3=O)nc12 [BMS536924] (first compound 0.1 µM, partner dose 0.2 µM) | 95 | 99 | 92 | 99.9 | 94.9 | 99 | 98.4 | 91.6 | 92.5 | 87 | 91.8 | 83.3 | 78.1 | 103 | 93.6 | 93.2
Nc1ccn([C@@H]2O[C@H](CO)[C@@H](O)C2(F)F)c(=O)n1 [gemcitabine] + Oc1cc(-c2nc(-c3ccccc3)[nH]c2-c2ccncc2)ccc1Cl [L779450] (first compound 0.0004 µM, partner dose 0.2 µM) | 78.4 | 99.4 | 81.2 | 106 | 81.7 | 96.1 | 105 | 114 | 108 | 85.8 | 91.6 | 98.4 | 59.4 | 95.2 | 61.8 | 131
